# Values joined by “and” are separate entries in the source; they are usually repeats but may differ in a detail not shown here. Equal values may be shown once.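 All cell lines were grown in 96-well plates and treated with compound for 48 hours. GI50 is the concentration that inhibits growth by half. TGI: total growth inhibition.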 Peptide text beside a SMILES is read from it. * marks the point of attachment. Boc = CC(C)(C)OC(=O)*
# Test system: NCI-H322M lung
# Assay: NCI-60 cell line screen, 48 h
Compound,TGI,GI50
O=C(CN1c2ccccc2Sc2ccccc21)N1CCNCC1,> 100 µM,–
COc1ccc(C2Oc3c(cc(O)c(OC)c3C)[C@@H]2C)cc1OC (stereo partly specified),> 100 µM,–
COC(=O)CCCCN=Cc1c(O)c(O)c(C(C)C)c2cc(C)c(-c3c(C)cc4c(C(C)C)c(O)c(O)c(C=NCCCCC(=O)OC)c4c3O)c(O)c12,> 32.5 µM,1.3 µM
CC(C)Sc1nc(C#N)cc2c1CCCC2,> 100 µM,–
COc1ccccc1N/C(=C\C(=O)C(=O)NC12CC3CC(CC(C3)C1)C2)c1ccccc1,> 10 µM,–
COC1C(CN[N+](=O)CC2OC3OC(C)(C)OC3C2OC)OC2OC(C)(C)OC21 (stereo unspecified),> 100 µM,–
Cc1c(C(=O)N/N=C/c2ccc(Cl)cc2)nnn1-c1ccnc2c(C(F)(F)F)cccc12,20.5 µM,4.44 µM
O=C(O)CC/C(=N\Nc1nsc2ccccc12)c1ccccc1,> 100 µM,–
CCOc1cccc(/C=N/NC(=O)c2ccccc2Nc2ccnc(C(F)(F)F)c2)c1O,> 100 µM,0.35 µM
N#Cc1ccc(C#Cc2ccccc2C#CCCCCO)cc1,27.7 µM,14.1 µM
O=C(CI)NC1Oc2ccccc2-c2oc(=O)c(-c3ccccc3)cc21 (stereo unspecified),36.7 µM,17 µM
CCN1CC2=C(NC(=S)NC2c2ccc(Cl)cc2)/C(=C/c2ccc(Cl)cc2)C1 (stereo unspecified),> 100 µM,–
NCC1CCN(c2nc3ccccc3c3c2CCCC3)CC1,17.4 µM,–
COc1cc(-c2cc(=O)c3cc4c(cc3[nH]2)OCO4)cc(OC)c1O,> 10 µM,–
O=C1c2c(c3c4ccccc4n(CCCCCCBr)c3c3[nH]c4ccccc4c23)C(=O)N1O,12.5 µM,2.5 µM
COc1ccc(CNc2cc(OC)c(OC)c(OC)c2)cc1,91.3 µM,–
CCCCN1C(=O)CC2[C@@H]3CCc4cc(OC(C)=O)ccc4C3CC[C@]2(C)C1=O (stereo partly specified),> 10 µM,–
COc1ccc(N2C(=O)C3c4[nH]c5ccc(OCc6ccccc6)cc5c4C4CCC(C(C)(C)C)CC4C3C2=O)cc1 (stereo unspecified),> 100 µM,–
O=C(N/N=C/c1ccccc1O)c1cccc([N+](=O)[O-])c1,> 100 µM,–
COc1cccc2c(N)c3cccc(C(=O)NCCN(C)C)c3nc12,1.52 µM,–
Brc1ccc(CCNCCN2CCCCC2)cc1,35.4 µM,–
Clc1ccc(C2N3CCCCC3[C@@H]3c4[nH]c5ccccc5c4CCN23)cc1 (stereo partly specified),> 100 µM,–
O=c1oc2ccc(F)cc2c(=O)n1-c1ccc(F)cc1F,> 100 µM,3.36 µM
COc1cc2c3c(n(C)c(=O)c2cc1OC)-c1cc2c(cc1/C3=C\CCCN1C(=O)c3ccccc3C1=O)OCO2,> 40 µM,> 40 µM

Compound,TGI,GI50
CN(C)CCC(=O)N1C/C(=C/c2ccccc2)C(=O)/C(=C\c2ccccc2)C1,5.75 µM,–
O=C(NCCOCCOCCNc1cccc2c1C(=O)N(C1CCCNC1=O)C2=O)c1cc2c(o1)C(=O)c1ccccc1C2=O (stereo unspecified),3.5 µM,1.88 µM
CC1(C)CC(/C=C2/OC(=O)c3ccccc32)=C(C#N)C(=O)O1,> 100 µM,–
COC(=O)c1cc2c3ccccc3[nH]c2c2ncccc12,> 100 µM,> 100 µM
N.N.N.O=[N+]([O-])[O-].O=[N+]([O-])[O-].O=[N+]([O-])[O-].O=[N+]([O-])[O-].[Co+3],> 100 µM,–
CN1CCN(Cc2ccc(NC(=O)c3cncc(C#Cc4cnc(N)c5ccc(C#N)cc45)c3)cc2C(F)(F)F)CC1,2.17 µM,0.0438 µM
CC(C)(N=NC(C)(C)C(=O)NCCO)C(=O)NCCO,> 100 µM,–
Cc1ccc(-c2c(C#N)c(-c3ccccc3)n(NS(=O)(=O)c3ccccc3)c(=O)c2C#N)cc1,> 100 µM,–
C[C@]12CC[C@@H]3c4ccc(O)cc4CC[C@H]3[C@@H]1C/C(=C\c1ccncc1)C2=O,> 100 µM,–
Cc1ccc(S(=O)(=O)C(CC(=O)N2CCCC2)C(=O)c2ccccc2)cc1 (stereo unspecified),> 100 µM,–
Cn1cc2ccccc2c1-c1nc(N)nc(F)n1,> 100 µM,–
Cc1ccc(CS/C(=C\c2ccc([N+](=O)[O-])cc2)C(=O)c2ccc(F)cc2)cc1,> 100 µM,33.8 µM
CCOC(=O)/C=C(/C(=O)OCC)n1cc(Cl)c(=O)n(CC(=O)OCC)c1=O,> 25 µM and 35.4 µM,–
CSc1ccc(C2=NN(C(C)=O)C(c3cc(C)cs3)C2)cc1 (stereo unspecified),> 100 µM,52.8 µM
N#CC1(Cc2ccc(N)cc2)c2ccccc2C=CN1C(=O)c1ccccc1 (stereo unspecified),> 100 µM,–
N#C/C(=C/c1ccsc1)C(=O)c1ccccc1,> 100 µM,–
Cn1c(N2NC(=O)C(N=Nc3ccc(S(N)(=O)=O)cc3)C2=O)nc(-c2ccco2)c(C#N)c1=O (stereo unspecified),> 50 µM,0.256 µM
COC(=O)CC(C(C(=O)OC)C(=O)OC)N1C(=O)OCC1c1ccccc1 (stereo unspecified),> 100 µM,–
COc1ccc2ccc3c(c2c1)CN1CCc2cc(OC)c(OC)cc2C1C3 (stereo unspecified),> 100 µM,–
COc1cc(OC)cc(-c2ccc(-c3ccc(C(=N)N)o3)o2)c1,9.57 µM,2.86 µM
OC1C2[C@@H](O)CCCN2C[C@@H](O)[C@H]1O (stereo partly specified),> 100 µM,–
Cc1cc(N(CCC#N)CCC#N)ccc1/C=N/NC(=O)c1cc(Cl)ccc1O,> 100 µM,–
CC1=C(C(=O)Nc2ccc([N+](=O)[O-])cc2)C(c2ccc(N(C)C)cc2)C(C(=O)Nc2ccc([N+](=O)[O-])cc2)=C(C)N1,52.5 µM,–
C=CCN1C(=O)/C(=C/c2ccccc2)N=C1SC1OC(COC(=O)c2ccccc2)C(OC(=O)c2ccccc2)C1OC(=O)c1ccccc1 (stereo unspecified),> 100 µM,–

Compound,TGI,GI50
Cc1ccc(C(=O)Nc2ccc(CP(=O)(O)O)cc2CP(=O)(O)O)cc1NC(=O)c1cccc(N)c1,> 100 µM,–
OCCCCCNc1c2ccccc2nc2ccccc12,14.9 µM,–
CC1=C2C(=O)NN=C2CCN1c1ccc(Br)cc1,> 100 µM,–
COC(=O)CC(=O)C[P+](c1ccccc1)(c1ccccc1)c1ccccc1,> 218 µM,–
O=C1OCc2c1cc1ccc(O)c(OC3OC(CO)C(O)C(O)C3O)c1c2-c1ccc2c(c1)OCO2 (stereo unspecified),> 100 µM,–
CC(C)CC(=O)[O-].CC(C)CC(=O)[O-].N.N.N.N.[Co+3].[O-][Cl+3]([O-])([O-])[O-],> 100 µM,> 100 µM
O=C1NNC=Nc2ccc(cc2)S(=O)(=O)c2ccc(cc2)N=CNNC1=O,> 100 µM,–
CN(C)CCCOC(=O)C(c1ccccc1)C1(O)CCSCC1 (stereo unspecified),> 100 µM,–
COCOC1/C=C/CCCC#C[C@H](C)C(=O)CC1 (stereo partly specified),28.1 µM,–
CC(C)=CCOC(=O)C(C)=[N+]=[N-],> 100 µM,–
CCOC(=O)C1Cc2[nH]c3ccccc3c2C(C)C1C (stereo unspecified),39.3 µM,–
Cc1nc2c(nc1Cl)nc(Oc1ccc(Cl)cc1)c1ccccc12,> 100 µM,–
O=C1C(Cl)=C(N2CCN(C3=C(Cl)C(=O)c4ccccc4C3=O)CC2)C(=O)c2ccccc21,25.4 µM,–
COc1ccc(C2=NN(C(=O)c3cc(OC)c(OC)c(OC)c3)C(c3ccc(C#N)cc3)C2)cc1OC (stereo unspecified),76 µM,6.12 µM
C=C(CN1CCc2ccccc2C1)c1ccc(C(=O)Nc2cnccn2)cc1,> 100 µM,11.2 µM
CSc1nc(Cl)c2c(n1)Sc1nc3cc4c(cc3n1C2O)OCCO4 (stereo unspecified),20 µM,–
CCN(CC)CCc1c2c(nc3ccccc13)C(=O)c1cccnc1C2=O,8.89 µM,–
CC1=C(CCCNS(C)(=O)=O)C2=C(C)C3(CC3)[C@@](C)(O)C(=O)C2=C1,5.92 µM,1.29 µM
Cc1cc(I)cc(CNCCCN2CCSCC2)c1O,36.4 µM,17.9 µM
NCC(=O)NS(=O)(=O)OC[C@H]1O[C@@H](n2cnc3c(N)ncnc32)[C@H](O)[C@@H]1O,4.52 µM,1.52 µM
CC1(C)OCC(COC(=O)C=[N+]=[N-])O1 (stereo unspecified),> 100 µM,–
Nc1nc(=S)c2ncn(C3CC(O)C(CO)O3)c2[nH]1 (stereo unspecified),576 µM and 2380 µM,–
Cc1ccc([C@@H]2[C@@H](C(=O)c3ccccn3)[C@H](c3ccc(C)cc3)C[C@](O)(c3ccccn3)[C@H]2C(=O)c2ccccn2)cc1,55 µM,–
COc1ccc(C(C#N)NNC(=O)c2ccccc2O)cc1OC (stereo unspecified),> 100 µM,–

Compound,TGI,GI50
COc1ccc(OC)c(NC(=O)C(=O)C(C(C)=O)c2nc3ccc(Cl)cc3[nH]c2=O)c1 (stereo unspecified),> 50 µM,–
Cc1nn(CN2CCN(C)CC2)c(=S)n1/N=C/c1cccc2ccccc12,43.1 µM,19.1 µM
COCCOCOc1ccc(OCc2ccccc2)cc1,> 100 µM,–
COc1ccc2cc1Oc1ccc(cc1)CC1c3cc(c(OC)cc3CCN1C)Oc1c3c(cc4c1C(C2)N(C)CC4)OCO3 (stereo unspecified),27.1 µM,–
O=c1nc(N2CCN(c3ccccc3)CC2)ccn1C1OC(CO)C(O)C1O (stereo unspecified),> 100 µM,–
COc1cc(/C=C2/C(=O)N(C(=O)c3ccccc3O)N=C2C)cc(OC)c1OC,> 100 µM,–
C#CCCCCC#Cc1ccccc1C(=O)OC,> 100 µM,–
c1ccc(C2C3=C(Nc4ncnn42)c2ccccc2C3)cc1 (stereo unspecified),> 100 µM,–
CCCc1cc(=O)c2c(C)c3[nH]c4ccc(Cl)cc4c3c(C)c2[nH]1,30.4 µM,–
O=C1/C(=C/c2ccc(Br)cc2)C=C(c2ccccc2)N1CCc1ccccc1,18.8 µM,1.2 µM
CCOc1cc(NC(C)=O)ccc1C(=O)NNC(=O)c1ccccc1OC(C)=O,> 100 µM,–
C=C1CC(COc2cc(=O)oc3ccccc23)(c2ccccc2)OC1=O (stereo unspecified),25.4 µM,–
CC1OC(O[C@H]2C[C@@H](O)[C@]3(CO)[C@H]4[C@H](O)C[C@]5(C)[C@@H](C6=CC(=O)OC6)CC[C@]5(O)[C@@H]4CC[C@]3(O)C2)C(O)C(O)C1O (stereo partly specified),49.1 µM,24.4 µM
CC(=O)OCC1OC(OC(C)(C)CC/C=C(\C)[C@@H]2C/C=C(\C)CC/C=C(\C)CC2)C(O)C(O)C1OC(C)=O (stereo partly specified),> 100 µM and 40.9 µM,> 100 µM and 19.6 µM
CCN(CC)c1c(C(=O)/C=C/c2ccccc2)c(-c2ccccc2)nn(C)c1=O,> 100 µM,–
CC1(O)CC(C(F)(F)F)(C(F)(F)F)OC1=O (stereo unspecified),> 10 µM,–
O=C(O)CN(CCNC(=O)OCC1c2ccccc2-c2ccccc21)CCNC(=O)OCC1c2ccccc2-c2ccccc21,69.3 µM,–
CCCCCCCCCCCCCCCCCCNc1ccn(C2OC(COP(=O)(O)OCC3OC(n4ccc(NC(=O)CCCCCCCCCCCCCCCCC)nc4=O)C(OC(C)=O)C3OC(C)=O)C(OC(C)=O)C2OC(C)=O)c(=O)n1 (stereo unspecified),> 100 µM,–
COC(=O)CNC(=O)C(Cc1ccccc1)NC(=O)C(CCSC)NC(=O)C(Cc1ccc(O)cc1)NC(=O)OC(C)(C)C (stereo unspecified) (Boc-YMFG-OMe; configuration not given here),> 100 µM,–
COc1ccc2c(c1)c(-c1nc(-c3cn(C)c4ncccc34)cs1)cn2CCCN1CCCCC1,3 µM,1.63 µM
CCCCCCCCCC[C@@H](O)[C@@H]1CC[C@H]([C@H]2CC[C@@H]([C@@H](O)CCCCCCCCCC[C@H]3CC(CC(C)=O)C(=O)O3)O2)O1 (stereo partly specified),78.9 µM,–
COc1cc(/C=C/c2cc(/C=C/c3ccc(O)c(OC)c3)n(-c3ccccc3)n2)ccc1O,1.95 µM,0.492 µM
